From PubChem BioAssay AID463173 (ICCB-Longwood Screening Facility, Harvard Medical School, 2010)
In all, about 52,000 compounds went through this assay and about 1,700 (3.3%) were called active. No stated cut-off is given here; in the data, active means survival mostly below about 52% (no sharp cut-off); inactive means mostly above about 56%. The list shows a part of the results.

Test system: Wild type
Assay: growth inhibition of S. aureus wild type versus tarO mutant, primary screen, teichoic acid synthesis inhibitors, RN4220, OD600 (AID 463173)
Conditions: S. aureus RN4220 wild type/DeltatarO growth, OD600, 18 h, hits give low values, screened at 18.75 µg/mL (by protocol)

SMILES	survival
CC(=O)c1ccc(NC(=O)c2ccc(-c3nc(COc4ccc(C)cc4)c(C)o3)cc2)cc1	inactive: 66%
Cc1ccc(NC(=O)CS(=O)CC(=O)Nc2ccc(N3CCOCC3)cc2)cc1Cl (centres undefined)	inactive: 87%
Cc1occc1C(=O)NCc1ccccc1	inactive: 101%
CCOC(=O)c1cnc2c(ccc3ccccc32)c1Nc1ccc(Cl)cc1	inactive: 30%
CCC(=O)N1CCc2cc(S(=O)(=O)NC(CC(C)C)C(=O)NCc3ccc(F)cc3)ccc21 (centres undefined)	inactive: 77%
COC(=O)c1cc(-c2ccc(OC)c(OC)c2)c2c(=O)[nH]c(=O)n(C)c2n1	inactive: 107%
CN(C)c1ccc(/C=C/C=c2\sc3nc4ccccc4n3c2=O)cc1	inactive: 102%
Cc1cccc(C)c1NC(=O)Cn1c(=O)n(Cc2ccco2)c(=O)c2ccc(C(=O)NC3CCCC3)cc21	inactive: 81%
Cc1ccc(NC(=O)Cn2c(=O)n(Cc3nc(C)no3)c(=O)c3cc4c(cc32)OCO4)c(Cl)c1	inactive: 81%
O=C(Nc1ccc(Cl)cc1)Nc1ccc(N2CCOCC2)cc1	inactive: 84%
CCC(=O)N1c2ccccc2NC2=C(C(=O)CC(C)(C)C2)C1c1ccccn1 (centres undefined)	inactive: 112%
Cc1ccc(S(=O)(=O)c2nc(-c3ccco3)oc2SCC(=O)Nc2ccc(F)cc2)cc1	inactive: 59%
O=C(CCn1c(=O)c2sccc2n(Cc2cccc(F)c2)c1=O)NCc1ccc2c(c1)OCO2	inactive: 89%
CC1Cc2cc(S(=O)(=O)CCC(=O)Nc3ccc(F)c(Cl)c3)ccc2N1C(=O)C1CC1 (centres undefined)	inactive: 53%
Cc1ccc2scc(N3CCN(c4ccc(F)cc4)CC3)c(=O)c2c1	inactive: 58%
CC1CCN(C(=O)c2ccc3c(c2)OCCO3)CC1	inactive: 105%
CCn1nc(CC(=O)Nc2nnc(CC(=O)N3CCCC3)s2)c2ccccc2c1=O	inactive: 95%
COc1ccc(NC(=O)c2sc3nc4n(c(=O)c3c2C)CCC4)cc1Cl	inactive: 117%
O=C1c2[nH]nc(-c3ccc(Br)cc3)c2C(c2cccc(O)c2)N1c1ccc(Cl)cc1 (centres undefined)	active: 1%
COc1ccc(-n2c3c(cc(-c4nc(-c5ccc(Cl)cc5)cs4)c2=O)C(=O)CC(C)(C)C3)cc1	inactive: 148%
O=S(=O)(Cc1ccccc1)N1CCCC(c2nc(-c3cccs3)no2)C1 (centres undefined)	inactive: 112%
COc1ccc2c(c1)sc1ncc(C(=O)NCc3cccc(Cl)c3)c(=O)n12	inactive: 69%
COc1cc(C)ccc1OCCn1c(-c2ccc(Cl)cc2)nc2ccccc2c1=O	inactive: 80%

SMILES	survival
COc1ccc(C2c3c(n(C)c4ccccc34)C(=O)N2CC(=O)Nc2ccccc2F)cc1 (centres undefined)	inactive: 89%
O=C(NCc1ccc(Cl)cc1)c1cnc2sc(N3CCCC3)nn2c1=O	inactive: 71%
CCOc1ccc(C(c2c(O)cc(C)n(CCOC)c2=O)N2CCC(C)CC2)cc1 (centres undefined)	inactive: 75%
COc1ccc(Cl)cc1NC(=O)CN(c1cccc(C)c1C)S(=O)(=O)c1ccccc1	inactive: 86%
O=C(CC1N=C2c3ccccc3N=C(SCc3ccccc3F)N2C1=O)NCc1ccc2c(c1)OCO2 (centres undefined)	inactive: 119%
COc1ccc(CCNC(=O)c2ccc3c(c2)N(Cc2cccc(Cl)c2)C(=O)CS3)cc1OC	inactive: 84%
O=C(Cc1ccc(NC(=O)N2CCSc3ncccc32)cc1)NCCc1ccccc1	inactive: 128%
Cc1ccc(N(C)S(=O)(=O)c2nnc(NC(=O)C3CCCCC3)s2)cc1	inactive: 87%
CCc1ccc(CNC(=O)c2cc(-c3ccc(Cl)s3)nc3ccccc23)cc1	inactive: 95%
NNc1nc2sc3c(c2c(=O)[nH]1)CCCC3	inactive: 107%
CCOc1ccc(NC(=O)Cn2c(=O)oc3cc(S(=O)(=O)N4CCCCCC4)ccc32)cc1	inactive: 83%
Cc1ccc(CCNC(=O)c2ccc(CSCc3ccccc3Cl)o2)cc1	inactive: 72%
CCC(=O)N(CCN1CCOCC1)Cc1cc2cc3c(cc2nc1Cl)OCO3	inactive: 122%
CCOC(=O)N1CCc2c(sc3c2c(=O)n(-c2ccc(CC)cc2)c(=O)n3CC(=O)Nc2ccc(C)cc2)C1	inactive: 84%
CCCCn1c(Cc2ccccc2)nnc1SCC(=O)NC	inactive: 104%
NNC(=O)C(Sc1n[nH]c(=O)[nH]c1=O)c1ccccc1 (centres undefined)	inactive: 112%
O=C(NCCOCCn1c(=O)oc2ccccc21)Nc1ccc(Cl)cc1	inactive: 81%
Cc1ccccc1NC(=O)c1c(NC(=O)Cc2ccccc2)sc2c1CCC2	inactive: 48%
CCOc1ccc(CNC(=O)c2ccc3c(c2)c(C)c(C)n3Cc2ccc(Cl)cc2)cc1	inactive: 76%
CN(C)S(=O)(=O)n1cc(/C=C(\NC(=O)c2ccccc2)C(=O)NCCCn2ccnc2)c2ccccc21	inactive: 115%
O=C(O)CS(=O)(=O)c1nc2ccccc2s1	inactive: 112%
CCNc1ccc(-c2nc(-c3ccco3)no2)cc1[N+](=O)[O-]	inactive: 81%
COc1ccc(N2CC(NC(=O)CCc3ccccc3)CC2=O)cc1OC (centres undefined)	inactive: 71%

SMILES	survival
Cc1cc(C)c(NC(=O)c2cc(S(=O)(=O)N3CCN(c4ccccc4F)CC3)ccc2F)c(C)c1	inactive: 102%
Cc1ccc2oc(=O)n(CCCOc3ccc(Cl)cc3)c2c1	active: -9%
Cc1cc(OCC(=O)Nc2ccc3c(c2)OCCO3)cc(C)c1Cl	inactive: 113%
CCOC(=O)c1ccccc1NC(=O)N1CCC(N2CCN(Cc3ccccc3)C(=O)C2=O)CC1	inactive: 69%
CCOC(=O)c1c(C(=O)CSc2ncc(-c3ccc(F)cc3)n2Cc2ccco2)sc2c1CCCC2	inactive: 116%
Cc1ccc2cc(CN(C(=O)c3cnccn3)C3CCCCC3)c(=O)[nH]c2c1	inactive: 107%
COC(=O)c1scc(-c2ccc(C)cc2)c1S(=O)(=O)N1CCN(c2ccc(OC)cc2)CC1	inactive: 75%
O=C(Cn1c(=O)n(CC2CCCO2)c(=O)c2ccccc21)Nc1cccc(Cl)c1 (centres undefined)	inactive: 82%
COc1cc(OC)c(Nc2nc3ccccc3nc2-n2nc(C)cc2C)cc1Cl	inactive: 80%
Cc1ccc(-c2nc3nc(C)cc(Nc4ccccc4O)n3n2)cc1	inactive: 83%
COc1cccc(NC(=O)c2oc3ccccc3c2C)c1	inactive: 117%
CCS(=O)(=O)N1CCc2cc(C(=O)NCc3ccccc3)ccc21	inactive: 88%
C=CCN1C(=O)C(Cc2ccc(F)cc2)S/C1=N\N=C/c1ccco1 (centres undefined)	inactive: 106%
Cc1cc(C)nc(Sc2ccc3nnnn3n2)n1	inactive: 100%
CC(=O)N1SC(N)=NC1c1ccccc1 (centres undefined)	inactive: 111%
COc1cc(OC)c(NS(=O)(=O)c2cc(-c3cnc(C)o3)ccc2OC)cc1Cl	inactive: 60%
CSc1ncc(C(=O)Nc2ccc(F)cc2F)c(-c2ccccc2)n1	inactive: 73%
CCCC1=Nc2cc(C(=O)NCCc3ccc(OC)cc3OC)ccc2Sc2ccccc21	inactive: 119%
Cc1ccc2oc(-c3cc(NC(=O)c4ccco4)ccc3Cl)nc2c1	active: 1%
Cc1ccc(NC(=O)CN2C(=O)CCn3nc(-c4cccn4C)cc32)cc1	inactive: 77%
CCOc1ccc(OCC)c(NC(=O)CCC(=O)N2CCOc3ccccc32)c1	inactive: 116%
COCCCNc1nc2c(S(=O)(=O)c3ccc(C)c(C)c3)nnn2c2ccc(Cl)cc12	inactive: 114%
Cc1cn(C)c(CC(=O)NCc2ccccc2Cl)c1C(=O)O	inactive: 53%

SMILES	survival
CCN(CC)CCNC(=O)c1nn(C)c2c1CS(=O)(=O)c1ccccc1-2	inactive: 83%
CCOC(=O)c1ccc(N2C(=O)c3n[nH]c(-c4ccco4)c3C2c2ccc(O)c(OC)c2)cc1 (centres undefined)	inactive: 124%
CCC(=O)N1c2ccccc2CC1C(=O)NCCc1ccc(C)cc1 (centres undefined)	inactive: 83%
Cc1ccc(CNC(=O)c2nn(C)c3c2CS(=O)(=O)c2ccccc2-3)cc1	inactive: 87%
CCC(C)OC(=O)/C(C#N)=C\c1ccc(-c2ccccc2Cl)o1 (centres undefined)	inactive: 66%
O=C(Nc1nc2nc(-c3ccccc3)cc(=O)n2[nH]1)c1ccc(Cl)cc1	inactive: 88%
CNC(=O)COc1ccc(NC(=O)CCn2nc(-c3ccc(C)cc3)c3ccccc3c2=O)cc1	inactive: 68%
O=C(CSCc1nc2cccnc2n1C1CCCCC1)NCc1cccc(Cl)c1	inactive: 124%
COc1ccc(-n2nc(C(=O)N3CCN(c4cccc(C)c4C)CC3)c3c4ccccc4n(C)c3c2=O)cc1	inactive: 126%
CC1=C(c2ccc(C(C)C)cc2)S(=O)(=O)NC1=NCc1ccccc1Br	inactive: 82%
CCOc1ccc(N(CC(=O)NCc2ccc(C)cc2)S(=O)(=O)c2c(C)noc2C)cc1	inactive: 86%
O=C(c1ccc(CSc2nc3ccncc3n2Cc2cccc(F)c2)cc1)N1CCCCC1	inactive: 76%
O=C(NCc1ccco1)C(c1ccco1)N(C(=O)Cn1nnc2ccccc21)c1ccccc1 (centres undefined)	inactive: 111%
Cc1cccc(NC(=O)Cn2c(=O)nc(-c3ccccc3)c3ccccc32)c1C	inactive: 74%
COC(=O)CSc1nc2cc3c(cc2cc1C#N)OCO3	inactive: 98%
CNC(=O)C1CCC(Cn2c(=O)c3sccc3n(CC(=O)Nc3ccc(C)c(F)c3)c2=O)CC1 (centres undefined)	inactive: 66%
CCOC(=O)c1c(C)[nH]c(C)c1S(=O)(=O)N1CCC(C(=O)Nc2ccc(C)cn2)CC1	inactive: 81%
CCOc1ccc(CCNC(=O)Cn2ncc3c(=O)oc4ccc(C)cc4c32)cc1	inactive: 80%
CCn1c2ccccc2c2cc(NC(=O)COc3cccc(C)c3)ccc21	inactive: 34%
CCOc1cc2[nH]c(=O)n(CCCC(=O)N3CCN(c4ccc(OC)cc4)CC3)c(=O)c2cc1OCC	inactive: 86%
